The text below walks through data of publication PMC12262889.

Sequences of proteins named here, by UniProt entry; tags and fusion partners are left off.
UniProt P14126: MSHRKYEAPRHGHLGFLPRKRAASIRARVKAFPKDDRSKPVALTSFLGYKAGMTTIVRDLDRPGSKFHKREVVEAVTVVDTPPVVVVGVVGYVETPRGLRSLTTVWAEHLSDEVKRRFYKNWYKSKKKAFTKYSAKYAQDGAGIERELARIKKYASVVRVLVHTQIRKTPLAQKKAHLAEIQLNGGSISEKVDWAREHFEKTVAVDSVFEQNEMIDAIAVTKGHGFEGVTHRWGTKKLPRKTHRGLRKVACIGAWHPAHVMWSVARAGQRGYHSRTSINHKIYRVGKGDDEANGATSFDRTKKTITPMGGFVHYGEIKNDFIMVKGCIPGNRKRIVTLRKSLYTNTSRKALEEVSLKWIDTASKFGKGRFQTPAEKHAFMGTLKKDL

For assay [1], the target named is ribosomal protein Rpl3 (S. cerevisiae) (UniProt P14126). The assay is described as follows: co-sedimentation; 5-45% sucrose continuous-density gradients of log phase Clu1-GFP lysates without cross-linking, with CHX (polysome-preserving) or CHX followed by RNase A (polysome-disrupting); immunoblot of fractions for Clu1-GFP and Rpl3. For orientation: In western blotting, separated proteins are transferred to a membrane and probed.

Assay [2] shares this target. The assay is described as follows: co-sedimentation; 5-45% sucrose gradients after in vivo cross-linking with 1% formaldehyde (20 min, room temperature); log phase, PD phase, galactose + CCCP, galactose + CCCP + glucose; lysates with or without RNase A; immunoblot of fractions for Clu1-GFP and Rpl3.

These are yes or no findings as the source states them, for the method shown. In cells and extracts the contact can be indirect. Some entries that bind do so weakly or less than the wild type. Sequences can lack the tags named with a protein.

B1: Clu1-GFP (protein, UniProt Q03690 1-1277)
chain: MSEKKEEVKNATVKVTVKLPKEDNHSHNTKHLKKTQSSKNNDISFEIGKESKIQTVLDVLAMIPSSKYLTNVGLKTIEGDSQLSDEMSIKEIVGEKSELKLQLILKPYSAREALKHVITVRDFIGFAQETSDGLSEFAISTGSSFSSLPLGPIKERSKQEEKDEKSDPEEKKNTFKDVTDEEKLKFNEMVHEVFSSFKNSSINKLLTSESNIITPCVRSLSFAPYNPVPPFYRSKGHLFYLQIVTLEGESFYITAIPSGFYVNKSNSTKFDPSPKENTDENAHSSLIYYSLFDLIASRSKKFISHVQAFEKKLSALDSTSYVRPSNTFLHKPWFVSSLPPNNPDYLRLQTAALDTTPERNFNDEFQAIKDLTTSTLQDRIEMERLFSKVVHEFSVTAASGAMSIFYSDFVAMNPESPTRDQIFLKDNIFYSYVSDVSGNYEGKGGDEAAIAASNQDLKTINILNRLHMHEVRYLLTTVVEFAGRRILAQTPVPGLLATMGNKIVKDANTGEEVTEDFVNDINVKYGLDEGLGKIVYDADFDSVLEKKFVKAFHLKKHKVNGTELAFSSQSKGIVGFDKRRYILDLANTYPLDINFARQNFDNIEETGNRYPHRQTLLRPELVEKWWNNKVEKEGVEFEKAYEENLFSYNPDAYQVEGIEDANVDEMSNYLQKEVIPSVIQDYLSGNLSTPYNGEHLADTLHKNGINMRYLGKIIELSQKELDSQIVHYEQNLKAVEQDNKEYEDWEKSYLQKIENMIKERQAKINKLVQEGKEVPKELTEDLKLNDEEIKKPTDGKPVVVAYDELVPLIKISELEIVSRSLKHVLKDLSKDVPVFLVPSLVAYVFNMLVGINYNADPKPEPVDEFYPVNKCSFAKLTRSELLEAVSKQAFLRFRHQLPSNWIEAYMENPFTLIRSVSYKFGIQLLNKEYFFTREQLESYKQSLDKKIRNKFVEPPTTFSLSDLTIIPRVKFSEYTSSVSEEFWAQGASMINEDKQSALTLLAQSITVLEDVNNILHPAVAEKYLSLSAIYNKLALYPEAIAFCRKACTIYERVSGIDSFEMMRALTNLAILEFSNESPYNATVVYNRLAEILKVYELPKIHHPAPTSIFNHLEQLALGVQDTKLAIEVLGQLSSYVVELEGKDSLAYGYTESRLGNLFAALKDFHRALEHITVTQGIFTKQLGMNHTHSAQSRQWVNGLSSLIMDLKQKKQLAQDQMSTTGSNSAGHKKTNHRQKKDDVKPELANKSVDELLTFIEGDSSNSKSKNKTNNKKKHGKK
Take B1: the binding entry in assay [1] and in assay [2] was “binds” each time.
